# Measurements as given in the RNAGym collection of RNA variant scans (doi:10.7554/elife.90254).
# Read counts are not given, so values of variants with three or more changes are uncertain.
# B1: LINE1-mini (parent)
# chain: GGCAGAGCUCAACACAGCGUGGCAAAGUGGCUGUGGCUAGACUGCC
# Variants of: B1
# Assay: self-cleavage, relative activity (ratio to wild type); higher = more cleavage; in vitro, sequencing; the parent is a self-cleaving ribozyme
row,Variant,self-cleavage
1,G21A C31G U34A G44U,0.03
2,G22C C37U A39G,0
3,C3A C13G U20A,0.3
4,G21A G33U U43C,0.03
5,G5A A6U A16G,0.11
6,C3G A4C A12G G21A G22A G30C,0.13
7,G7A C15G A41C,0.39
8,A6C G19A U43C,0.11
9,C13G G19U G35A C42G,0.05
10,C8U U9G U32A G33A A41G,0.04
11,U20C U28C U43A,0.03
12,C8U A11C G17C G21U U28G,0.02
13,G5C A25U C46U,0.02
14,G2A C18A A25C,0.36
15,G19A G21U C46U,0.34
16,G2A A6C C15U C23U C37U A41G,0.09
17,A12C C15G C18U,0.03
18,U20A G29A C31A G35A G36C,0.1
19,G2A A4G A6U G19A C46A,0.54
20,U28C U34A A41C C46U,0.02
21,A6G C15U G30U A39U,0.05
22,G19U G29C G44A,0.18
23,A4G A14G G21C C23G A24G,0.22
24,G5A G7A G21A,0.89

row,Variant,self-cleavage
1,G1A C3U A12U A16G G29A G33A,0.04
2,G2U A26C G29U,0.1
3,G7C C18U G27U C37G,0.04
4,A12G G40C C42A,0.01
5,A12C A14U U28A C42A,0.01
6,G1U G7C G33C,0.07
7,C10A G27C G35A U38C C46A,0.01
8,C3G U20C G30A,0.15
9,C10U A26C U28G U34G,0.08
10,C3U C8A C13G,0.63
11,G2A A14C U32C G36C,0.28
12,C10A A12G C23A G40A G44C,0.01
13,G1A G5U A26C C31U G33U,0.04
14,A6G C13A C42A C46A,0.29
15,G1U C18A G21A A25C G40A C46U,0.01
16,G1C A24C G30C,0.28
17,A4G A14U A24C A26G,0.08
18,C3A A16G A25U,0.72
19,G1U C3G A6C C18U G21C A26C C45A,0.52
20,C8G A12U A14U G21C G35U C42A C45G,0.03
21,G2C A4C G19A G22U A24U G27A U38C A41G,0
22,G7C G30U U38C,0.18
23,C3G G36C G40C,0.1
24,C10U C18U C23A,0.4

row,Variant,self-cleavage
1,C3U G5U C10G A12C C46U,0.06
2,C3A A12G A24C G44U,0.07
3,A4U C10A G30U U32C C42A,0.02
4,G2U A25U C42U,0.02
5,A12C A14C G35U,0.06
6,G22C G27A G33U C37U C46A,0.14
7,G1U G5U G21C G40A A41C,0.04
8,G5C C15G C18A A25C,0.03
9,C15U A16C A41G,0.02
10,C13G U20A C46A,0.09
11,G2U U9C C10G U38G,0.01
12,C10U A16C G22A,0.04
13,U9C C13A C15A G33U,0.02
14,G7A C15U G21A A41U,0.05
15,C3U C10U C37U,0.07
16,C10A G21A C37U,0.02
17,C10A G22C C31U G44A,0.03
18,C3U A6C G17C G19A U20C,0.15
19,U28G C31U U34C C46G,0
20,C8A C15A U20C G33U G36A,0.27
21,G33C C42A C46G,0
22,C15U G21C A24U C31G,0.09
23,G2A A6U A25U C37U,0.18
24,G2A C10A A26U G40U,0.03

row,Variant,self-cleavage
1,A4U A26G G40U,0.08
2,C10A A11C C15G A24C G29C G33U G35U A39U,0
3,G5A A26C G35U G36A,0.05
4,A14C C42A C45G,0.07
5,A6C G27U U32A G40U,0
6,A25G G40U U43C C45G,0.26
7,C8G U20C C37A,0.02
8,G19A C23U U28A,0.73
9,C10A G30A G40C A41C,0.02
10,G2U C18G U28C,0.01
11,A4U G21A C23U G29C G30U C45U C46A,0.05
12,C13G G21U U34C,0.02
13,G2U A4U C13G G27C U32C,0.07
14,C23A A24C G44U,0.22
15,U9G U20C C23G U43A,0.03
16,G2A C42G C45A,0.15
17,C15A G19U G30U,0.08
18,A6C C37G G40U,0.09
19,C8G A24C A25C,0.06
20,U20G A24G A25G,0.29
21,G5U C15G U28G A39U,0.02
22,G1C A12G U20G A25C,0
23,A6G C15A C31U U32C U43A,0.04
24,C10A G27U G29A C37A A39U,0

row,Variant,self-cleavage
1,G5A A16C C23U G27U G36A G40A C42A U43A,0.05
2,G1A A6U C23A C37G,0.06
3,C3G G22A C23G,0.2
4,G21A G29U C31U,0.13
5,C8U U9G C15U C18A C31G G40C,0.04
6,A6U G30U G33U U43C,0.95
7,C13U C15G A24G A26C,0.01
8,A11C A25C G30A C37G G40C,0.01
9,U9A A24G A26C U28G,0.13
10,G19A A26G U28A C37U,0.03
11,G2U A4C C8G G35A,0.05
12,C3U C10G G33U,0.01
13,A16U G35U G40C G44C,0.01
14,G7U G17A A24U C37A A41G,0.02
15,A6C G7A G19C U34C G40C,0.11
16,G2U G30U C42U,0.56
17,A6G C10G U28G G30C C45U,0.01
18,C8A U9G G19U G27U G33C,0.04
19,G5U C10U G19C U28G G30A,0.02
20,G1A C3U G5U G29A,0.14
21,G2U A6U C13G,0.04
22,G2A G19C A41G,0.06
23,C10A A25U G33U C37A,0.01
24,U9C U20G G22C U28G U38C,0

row,Variant,self-cleavage
1,G7C G40U C45A,0.14
2,A4C A12U G22U C37U G40U,0.2
3,C8G G22C U43G C45A,0.13
4,C8G C13U G36C,0.23
5,C13G U32C C45U C46U,0.01
6,A11U C13U U28A U32A G36C,0
7,G7A C15G U20A,0.02
8,C3A G5A C8U C13A U32G G44A,1.05
9,G1C C8A A14G G35C G40U,0.03
10,C8A U28C G30C,0.04
11,G7C C18G G29A G40U,0.1
12,G1C G19A G36U,0.03
13,G7U G21C C45G,0.07
14,A14U C23U C37U G44C,0.06
15,C18G U20G C23A G29U C42G,0.09
16,A12C A24G G30C C42U,0
17,G5C C8A A24C,0.25
18,C3U C13U G19A A24C G36U G40U,0.11
19,A26G G29C G33U C46G,0.03
20,G2A C8A G44C,0.69
21,G2U A6C U32C,0.01
22,C3A U32A U34C U38G,0.18
23,G7U A14G U38C,0.02
24,C8G G19A U32C G44A,0.02

row,Variant,self-cleavage
1,G7A C8G A16U U20A,0.07
2,C8U A16C U38C,0.42
3,C18U U20C C31G,0.07
4,C3U G22U A39U G40C,0.08
5,G33A U34C C42G,0.07
6,G7C C15A A41G,0.04
7,U32A G35A G36A,0.08
8,G2A A14G G17U U43C,0.11
9,G7C C15G U34A,0.2
10,G2A G19C C37A,0.09
11,A11C C13A G17U G35A,0.04
12,C18G U32G C45G,0.03
13,G19C G27U C31U U38C,0.1
14,G27U C42A U43A,0.02
15,U20A A41C U43C,0.04
16,A12U C18G A39U G44A,0
17,C8U A11G C13G A14C,0.02
18,C10G G22A U28C,0.03
19,A4C C18A A41G,0.02
20,C23G A25U G27A A39C G40C,0.03
21,C15G U32C A41U,0.02
22,G2U G5U G7U G19A A26U,0.18
23,G2U C10U G30A C31A,0.02
